# Data published in the supplement of paper PMC4466236.
# The full ranking holds about 33,000 sequences; the median of “E-score (dimensionless, -0.5 to 0.5)” is about -0.058, and the highest 2% start at about 0.35. The list shows a part of the results.
# System: MvaT
# Experiment: PBM 8-mer E-score (mean of HK and ME arrays) (E-score (dimensionless, -0.5 to 0.5)); higher = stronger relative binding preference; most listed sequences are background and not binding sites
# Summary of the method: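 Full-length P. aeruginosa MvaT, with glutathione S-transferase fused to its N-terminus (cloned into pTH6838 by isothermal assembly), was tested by protein binding microarray using a previously described protocol. Two universal double-stranded 60-mer arrays (ME and HK) were used, each with a constant 25-mer primer region and a variable 35-mer region covering all 8-mers. The rank-based 8-mer E-score (-0.5 to 0.5) is the mean of the two arrays, parsed with a custom Python script.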
row,Sequence,PBM 8-mer E-score
1,CTAACGAC,-0.0501
2,ACTGTGCC,-0.156
3,AAGATCCG,-0.0782
4,GGTTTAGA,0.0324
5,ATAGGGTC,-0.131
6,AGGTAGAC,-0.0804
7,CGAAAGCA,-0.103
8,GACTTCTC,-0.00638
9,CATTGTCA,0.0168
10,TGCACCCA,-0.0225
11,CCAACCCC,-0.325
12,ACCATTAC,0.17
13,CAACGTGG,-0.235
14,ATTCACTA,0.168
15,GAGCGGAC,-0.17
16,TATATCGA,0.324
17,CTCGCGTA,-0.00329
18,GATGTGGC,-0.0862
19,GTGTACCA,-0.141
20,CCAGGACC,-0.27
21,TGCCTACA,-0.13
22,ACTAGGGG,-0.2
23,AATGTAAA,0.314
24,GTGGTTAA,0.0836
25,GCGGGGAC,-0.306

row,Sequence,PBM 8-mer E-score
1,AGGTATAA,0.291
2,CGTCGTGC,-0.249
3,CCGGAATA,0.259
4,GTTAAGCA,0.0863
5,GCAGACAC,-0.0644
6,ATCAAATG,0.0685
7,GTTAGCTA,-0.0646
8,CGGCATGC,-0.0979
9,AGAATGCA,-0.0318
10,AGCTAGAT,-0.0463
11,ATAGGAGA,-0.0113
12,GGCCGTAA,-0.107
13,TAGGTTCA,-0.101
14,CCCCTTGA,-0.176
15,ATCCACAC,0.0527
16,TACTTCCA,0.17
17,AAGTGTCG,0.172
18,CGTCGGTC,-0.148
19,GATGATCA,-0.0834
20,GCCATACA,0.0801
21,ACTAATCG,0.0335
22,CGCGCTAG,-0.273
23,GAGCACGA,-0.273
24,AGACCTGC,-0.221
25,AACCGAAA,0.0688

row,Sequence,PBM 8-mer E-score
1,AAGACTTA,0.138
2,AGTCTGCC,-0.278
3,CCCCCAGC,-0.259
4,CATACCGA,-0.0927
5,GGTCCCAA,-0.103
6,CGACTGGA,-0.161
7,GGCCTTAA,0.107
8,TCTGCCAA,-0.0279
9,AAGCAGGA,-0.19
10,CCATATGG,0.0147
11,CTGAGTCA,-0.205
12,AACCAAGT,0.168
13,ATGTGACC,-0.154
14,ATGAGAGA,-0.122
15,GGGCTGTA,-0.144
16,TACCGGTA,0.0709
17,AGACGATA,0.063
18,AATGCGGA,-0.206
19,ACCTAGTA,0.0298
20,AAGATAAG,0.148
21,CACGGCGG,-0.131
22,CTATACGA,-0.0707
23,ACCTATCA,-0.127
24,ATATGCTC,0.128
25,ATACGCAT,-0.109

row,Sequence,PBM 8-mer E-score
1,TTCTGCAA,0.105
2,AGATCGTG,-0.0847
3,AAGGCCCA,-0.199
4,CACGCATG,-0.172
5,CCTGGTCA,-0.2
6,AATCATCT,-0.117
7,GCGCTCAA,-0.14
8,CACCCTAA,-0.0705
9,ACAGTTCA,0.0268
10,GGATGGAC,-0.327
11,CATTCTGA,-0.0574
12,GAACGATC,-0.251
13,TCACTGGA,-0.00201
14,CTACCCGC,-0.143
15,CCTCCCGA,-0.214
16,GTCTGTAA,-0.026
17,ATCACTGC,-0.146
18,CGCCTCCA,-0.236
19,CAAACATC,0.053
20,AAATAGTT,0.351
21,AACGCGCC,-0.137
22,ACAGGTAC,0.000213
23,TATCAGGA,0.0514
24,GCGGACGC,-0.276
25,CCCATTGC,-0.0601

row,Sequence,PBM 8-mer E-score
1,CTCGACTC,-0.141
2,GAAATTCC,0.0149
3,ATGGTAAG,0.0817
4,ACCTACAA,-0.0373
5,GATCACAC,0.106
6,GCTGTCAC,-0.214
7,CGGTTCCA,-0.074
8,AGGGTTTC,-0.282
9,CACTCTAG,-0.00622
10,CCCGGAGG,-0.297
11,CCTTATTC,0.189
12,ACAACGTA,0.0857
13,ACACCGCC,0.0303
14,AGAACGGG,-0.153
15,CTGAAAAA,0.0845
16,AAATCAAT,0.254
17,CGGCCCCG,-0.223
18,AGGGTTAC,-0.112
19,AGTCCAGG,-0.122
20,AACAAGAT,0.164
21,CAACCGCG,-0.0877
22,CGATGCAC,-0.128
23,CTATCTAA,0.179
24,GCAGGCAA,-0.0309
25,AGTTAAAC,0.242

row,Sequence,PBM 8-mer E-score
1,AACCATGC,0.0641
2,ACGGCCAG,-0.203
3,AAAGTCAA,0.0934
4,TAAATGAA,0.307
5,GGCCCAAC,-0.222
6,GCTCTGAC,-0.296
7,ACCACATG,-0.000124
8,CCGGAACA,-0.00216
9,CTGCCAAC,0.00399
10,ACTTAGGC,0.0749
11,ACCCCGTC,-0.312
12,CGCGCCAA,-0.0864
13,TGAAGGAA,-0.11
14,ACGGGTCG,-0.224
15,ATATCACC,0.0631
16,CCGCAACA,0.104
17,CGCATCAG,-0.0967
18,CCGTTCTA,-0.079
19,ATGTAGCC,-0.0913
20,ACATTGGA,0.00833
21,ACGAAGCT,-0.0324
22,AGAGCCGC,-0.301
23,ATTTAATG,0.376
24,ATGATCAA,0.176
25,GGTCCTAC,-0.157

row,Sequence,PBM 8-mer E-score
1,ATCAACCA,-0.0164
2,CCGAGCCG,-0.237
3,CCGGTTAC,-0.0289
4,AGCGCTGA,-0.188
5,CATGGCAG,-0.207
6,GCTGATCA,-0.157
7,TATTGAAA,0.235
8,ATTCTTGA,0.0466
9,ATTGCCCG,0.0369
10,ACGAAACT,0.209
11,AGAGGGCA,-0.141
12,GCGCCCAC,-0.255
13,ATAGCGAC,-0.0463
14,ACATGTCT,0.0552
15,AAAGTGAG,0.0697
16,ATTCGTCC,-0.154
17,ATATACGA,0.323
18,CGCAGCGC,-0.161
19,GAACCGCA,-0.0436
20,AACCTAGA,-0.0235
21,ATGACTGA,-0.0447
22,AAGCAACG,-0.105
